Assay results taken from US20230235013A1 (MABSOLVE, published 2023).

Each binder was assayed against T1, Sheep Fc-CD52 fusion protein (Absolute Antibody Cat. No. PR00205) (human, UniProt P31358 25-36) (assay: ELISA, antigen coated, antibody 5 µg/mL).
T1 construct: bought; also called CD52 antigen; human CD52; not shown: sheep Fc

Row | Binder | Mean Absorbance
1 | anti-CD52 human IgG1 L234A/L235A (LALA) (antibody, also called 4-65; copies: 2 + 2) heavy: QVQLQESGPGLVRPSQTLSLTCTVSGFTFTDFYMNWVRQPPGRGLEWIGFIRDKAKGYTTEYNPSVKGRVTMLVDTSKNQFSLRLSSVTAADTAVYYCAREGHTAAPFDYWGQGSLVTVSS[letters of human IgG1 constant region with changes omitted] light: DIQMTQSPSSLSASVGDRVTITCKASQNIDKYLNWYQQKPGKAPKLLIYNTNNLQTGVPSRFSGSGSGTDFTFTISSLQPEDIATYYCLQHISRPRTFGQGTKLEIKRTVAAPSVFIFPPSDEQLKSGTASVVCLLNNFYPREAKVQWKVDNALQSGNSQESVTEQDSKDSTYSLSSTLTLSKADYEKHKVYACEVTHQGLSSPVTKSFNRGEC | 1.24 absorbance
2 | anti-CD52 human IgG1 L234A/L235A/P329G (LALAPG reference) (antibody, also called 4-66; copies: 2 + 2) heavy: QVQLQESGPGLVRPSQTLSLTCTVSGFTFTDFYMNWVRQPPGRGLEWIGFIRDKAKGYTTEYNPSVKGRVTMLVDTSKNQFSLRLSSVTAADTAVYYCAREGHTAAPFDYWGQGSLVTVSSASTKGPSVFPLAPSSKSTSGGTAALGCLVKDYFPEPVTVSWNSGALTSGVHTFPAVLQSSGLYSLSSVVTVPSSSLGTQTYICNVNHKPSNTKVDKKV[letters of human IgG1 Fc with changes omitted] light: DIQMTQSPSSLSASVGDRVTITCKASQNIDKYLNWYQQKPGKAPKLLIYNTNNLQTGVPSRFSGSGSGTDFTFTISSLQPEDIATYYCLQHISRPRTFGQGTKLEIKRTVAAPSVFIFPPSDEQLKSGTASVVCLLNNFYPREAKVQWKVDNALQSGNSQESVTEQDSKDSTYSLSSTLTLSKADYEKHKVYACEVTHQGLSSPVTKSFNRGEC | 1.35 absorbance
3 | anti-CD52 human IgG1 N297Q (aglycosyl) (antibody, also called 4-67; copies: 2 + 2) heavy: QVQLQESGPGLVRPSQTLSLTCTVSGFTFTDFYMNWVRQPPGRGLEWIGFIRDKAKGYTTEYNPSVKGRVTMLVDTSKNQFSLRLSSVTAADTAVYYCAREGHTAAPFDYWGQGSLVTVSS[letters of human IgG1 constant region with changes omitted] light: DIQMTQSPSSLSASVGDRVTITCKASQNIDKYLNWYQQKPGKAPKLLIYNTNNLQTGVPSRFSGSGSGTDFTFTISSLQPEDIATYYCLQHISRPRTFGQGTKLEIKRTVAAPSVFIFPPSDEQLKSGTASVVCLLNNFYPREAKVQWKVDNALQSGNSQESVTEQDSKDSTYSLSSTLTLSKADYEKHKVYACEVTHQGLSSPVTKSFNRGEC | 1.36 absorbance
